Reference: PubChem BioAssay AID1346428 (National Center for Advancing Translational Sciences (NCATS), 2018)
In all, about 48,000 compounds went through this assay and about 1,200 (2.5%) were called active. About 2% were inconclusive and are not listed.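 The calls were made as follows: active = activation of at least 60% and not above a set upper limit (about 1 call in 100 departs from these limits); inconclusive = activation of 40% to 60%, or above that upper limit; inactive = activation under 40%.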 The list shows a part of the results.

target: Probable G-protein coupled receptor 32 (Homo sapiens) (UniProt O75388); assay: qHTS for Agonists of Human Resolvin D1 Receptor DRV1; details: CHO-K1 GPR32 beta-arrestin PathHunter luminescence, 90 min; at 76.9 µM; active compounds read high; zero percent set by DMSO-only wells; also: 0% is about no effect
In short: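 Step 1: seed CHO-K1 GPR32 beta-arrestin cells, 2,500/well, overnight at 37 °C. Step 2: add compounds, 90 min at 37 °C. Step 3: detection reagent, 1 h ambient, then luminescence.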

UniProt O75388, sequence (O75388 whole entry, looked up): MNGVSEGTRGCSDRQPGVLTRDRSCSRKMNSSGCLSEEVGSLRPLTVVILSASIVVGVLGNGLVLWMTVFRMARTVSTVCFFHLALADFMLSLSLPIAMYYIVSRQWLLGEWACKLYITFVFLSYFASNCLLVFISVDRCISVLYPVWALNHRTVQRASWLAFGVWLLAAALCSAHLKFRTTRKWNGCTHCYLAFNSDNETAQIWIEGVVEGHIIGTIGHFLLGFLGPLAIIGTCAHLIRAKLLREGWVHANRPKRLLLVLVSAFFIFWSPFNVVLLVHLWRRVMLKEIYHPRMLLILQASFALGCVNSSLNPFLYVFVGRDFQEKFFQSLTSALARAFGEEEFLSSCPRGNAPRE

| Structure (SMILES) | activation |
| --- | --- |
| CCCOC1(C(F)(F)F)NC(=O)N(c2cccc(Cl)c2)C1=O (centres undefined) | inactive: -1.65% |
| C=Cc1ccc(Cn2c(C(=O)O)c(CNC3CCCCC3)c3ccc(OC)cc32)cc1 | inactive: 22.7% |
| COc1cccc(CNC(=O)C(=O)NCC(c2ccc3c(c2)OCO3)N2CCOCC2)c1 (centres undefined) | inactive: -24.9% |
| CCC(C)NC(=O)CSc1c2c(nc3cc(Cl)ccc13)CCCC2 (centres undefined) | inactive: 2.26% |
| O=C(Nc1ccc2nc(SCC(=O)N3CCOCC3)sc2c1)c1ccc(Br)cc1 | inactive: 15% |
| COc1ccc(C(=O)Nc2cc(-c3nc4ccccc4s3)ccc2OC)cc1 | inactive: -23.3% |
| CCOC(=O)c1ccccc1NC(=O)Nc1cc2c(cc1N1CCCC1)n(C)c(=O)n2C | inactive: -2.41% |
| CCOc1ccc(NC(=O)CSc2nnc(CNC(=O)C34CC5CC(CC(C5)C3)C4)n2CC)cc1 | inactive: 13.3% |
| COc1ccc(-n2nc3cc(C)c(NC(=O)Cc4ccc(Cl)cc4)cc3n2)cc1 | inactive: -1.07% |
| Cc1cc2oc(C(=O)Nc3cccc(-c4nc5ccccc5o4)c3)c(C)c2cc1C | inactive: 0.485% |
| CCc1ccc(NC(=O)CSc2nc(-c3cccc(OC)c3)nc3c2Cc2c(CO)cnc(C)c2O3)cc1 | inactive: -4% |
| CC(Oc1ccccc1)C(=O)Nc1ccccc1C(=O)OCc1cc(=O)n2nc(C(C)C)sc2n1 (centres undefined) | inactive: -7.33% |
| CCCN1CN=C(NS(=O)(=O)c2ccc(NC(C)=O)cc2)NC1 | inactive: 7.07% |
| O=C(NCCc1ccccc1)c1ccc(Cn2c(SCc3ccccc3F)nc3cccnc32)cc1 | inactive: -22.7% |
| O=C(CSc1nc(=O)n(Cc2ccncc2)c2c1CCC2)Nc1ccc(F)cc1F | inactive: -8.38% |
| COc1ccc(-c2noc(-c3ccc(N4CCN(c5ccccc5OC)CC4)c([N+](=O)[O-])c3)n2)cc1 | inactive: 37.6% |
| CCCC12CN3CC(CCC)(CN(C1)C3c1ccc(OC(C)C)cc1)C2=O (centres undefined) | inactive: -4.54% |
| COc1cccc(Cn2c(C)c(CNC3CCCCC3)c(C(=O)O)c2C)c1 | inactive: -8.95% |
| COc1cc(C(=O)N(Cc2ccc(N(C)C)cc2)CC2CCCO2)cc(OC)c1OC (centres undefined) | inactive: -13.3% |
| Cc1c(C(=O)N(C)C)sc2c1c(=O)n(-c1ccc(Cl)c(Cl)c1)c(=O)n2CC(=O)N1CCCCC1C (centres undefined) | inactive: -15.8% |
| CCCc1cc(=O)[nH]c(Nc2cc(C)cc(C)c2)n1 | inactive: 6.32% |

| Structure (SMILES) | activation |
| --- | --- |
| Cc1ccc(Cl)cc1N1CCN(C(=O)CSc2cc(=O)n(C)c3ccccc23)CC1 | inactive: -1.06% |
| CC1=C(C(=O)Nc2cc(Cl)ccc2C)C(c2sccc2C)n2ncnc2N1 (centres undefined) | inactive: -17.9% |
| O=C(Nc1nc2ccc(F)cc2s1)c1nc(S(=O)(=O)Cc2ccccc2F)ncc1Cl | active: 105% |
| Cc1cc(C)c(NC(=O)Cn2c(=O)n(CCC(=O)NCc3ccccc3Cl)c(=O)c3sccc32)c(C)c1 | inactive: 26% |
| O=C(CSc1cn(CCNC(=O)c2cccc(C(F)(F)F)c2)c2ccccc12)Nc1ccc2c(c1)OCCO2 | active: 112% |
| CC(C)(C)c1ccc2c(c1)N(CC(=O)NCCCN1CCN(c3ccccc3F)CC1)C(=O)CO2 | inactive: -14.4% |
| CSc1ncc(C(=O)NCc2ccc(C)cc2)c(C)n1 | inactive: 2.64% |
| COc1ccc(C(=O)Nc2ccc3nc(SCC(=O)N(C)c4ccccc4)sc3c2)cc1 | inactive: -0.272% |
| CC(C)N(C(=O)Cn1cc(S(=O)(=O)Cc2ccc(Br)cc2)c2ccccc21)C(C)C | inactive: -22% |
| CN(C)C(=S)SC(=S)N(C)C | inactive: -15% |
| CC1CCN(S(=O)(=O)c2ccc3c(c2)N(CC(=O)NCCCN2CCCCC2)C(=O)CS3)CC1 | inactive: -14.4% |
| COc1ccc(NC2=C(c3ccccc3)C(=O)c3ccccc32)cc1Cl | inactive: 25% |
| Cc1ccc(CNC(=O)c2cc(-c3ccc(C)cc3)nc3n[nH]c(-c4cccc([N+](=O)[O-])c4)c23)cc1 | inactive: 0.0923% |
| CCOc1ccc(S(=O)(=O)NCCc2c(C)[nH]c3c(Cl)cccc23)cc1C | inactive: 24.8% |
| Cc1c(C(=O)Nc2ccc(F)c(C(F)(F)F)c2)sc2nc(-c3ccccc3)cn12 | inactive: -14.4% |
| CC(=O)Nc1ccc(Nc2ncnc3c2cnn3C)cc1 | inactive: 14.2% |
| CCCN(CCC)C(=O)Cn1c(=O)n(CCCCCC(=O)NCc2ccc3c(c2)OCO3)c(=O)c2sccc21 | inactive: -9.9% |
| CCOc1ccccc1CNC(=O)c1oc2c(c1C)-c1[nH]ncc1CC2 | inactive: -16.9% |
| CC1CCN(c2ncnc3c2c(-c2ccccc2)cn3-c2ccc(Br)cc2)CC1 | inactive: -0.493% |
| COc1ccccc1-c1noc(CCCC(=O)Nc2cccc(C(F)(F)F)c2)n1 | inactive: -5.66% |
| Cc1ccc(C)n1-c1nnc(N2CCCC(C(=O)Nc3ccccc3Br)C2)s1 (centres undefined) | inactive: -24.1% |

| Structure (SMILES) | activation |
| --- | --- |
| CCOC(=O)c1c(NC(=O)c2cc(OC)c(OC)c(OC)c2)sc2c1CCCC2 | inactive: -4.96% |
| O=C(CN1C(=O)C2(SCC(=O)N2c2cccc(Cl)c2)c2ccccc21)NCc1ccccc1 (centres undefined) | inactive: -10.9% |
| COc1ccc(NC(=O)CCCn2c(=O)c3cccn3c3cccnc32)cc1Cl | inactive: -8.77% |
| CC(C)(C)c1ccc(OCC(=O)NCC2(N3CCOCC3)CCCCC2)cc1 | inactive: -20.8% |
| C[n+]1cc2c3c(ccc2c2ccc4cc5c(cc4c21)OCO5)OCO3 | inactive: 27.1% |
| COc1ccc(-c2cn3nc(N4CCC(C(=O)Nc5cc(Cl)ccc5C)CC4)sc3n2)cc1 | inactive: 4.87% |
| COc1ccccc1-c1cc2nc(C)c(CCC(=O)NCCc3cccc(C)c3)c(C)n2n1 | inactive: -2.37% |
| Cc1ccc(NC(=O)Cn2cnc3onc(-c4ccc(F)cc4)c3c2=O)c(Cl)c1 | inactive: -12.6% |
| Cc1ccc(NC(=O)c2cc3ccccn3n2)cc1F | inactive: 25.3% |
| O=C(CCCCCn1c(=O)c2sccc2n(CC(=O)Nc2cc(C(F)(F)F)ccc2Cl)c1=O)NCc1ccccc1Cl | inactive: -25.1% |
| CCc1cccc(-n2c(=O)c3cccnc3n2CC(=O)NCc2ccc(C)cc2)c1 | inactive: -2.46% |
| Cc1cc(C)cc(NC(=O)CSc2nc3nccnc3c(=O)n2CCc2c[nH]c3ccccc23)c1 | inactive: 1.53% |
| Cc1ccc(-c2cn3ccc(C)cc3n2)cc1 | inactive: -43.7% |
| CC(C)CCn1c(/C=C/c2ccccc2)nc2ccccc21 | inactive: -30.8% |
| CCOC(=O)Cn1c(=O)n(C2CCCCC2)c2nc(-c3c(F)cccc3Cl)nc(C(N)=O)c21 | inactive: -30.6% |
| O=C(Nc1ccccc1Cl)N1CCSc2ccccc21 | inactive: -29.3% |
| COC(=O)c1scc(-c2ccc(C)cc2)c1S(=O)(=O)Nc1cc(C)ccc1OC | inactive: -12.3% |
| Cc1cccc(NC(=O)Cn2c(=O)n(CCCCCC(=O)NCc3ccc4c(c3)OCO4)c(=O)c3sccc32)c1 | inactive: -24% |
| O=C(c1ccc2c(c1)N(Cc1ccccc1)C(=O)c1ccccc1S2(=O)=O)N1CCN(Cc2ccccc2)CC1 | inactive: -21.7% |
| COc1ccccc1C(=O)Nc1sc(Nc2ccccc2)nc1C(N)=O | inactive: -17.1% |
| COc1ccc(Nc2nc(C)nc(N)c2S(=O)(=O)c2ccccc2)cc1 | inactive: -4.86% |

| Structure (SMILES) | activation |
| --- | --- |
| Cc1ccc(NC(=O)c2cnc3sc(N4CCOCC4)nn3c2=O)cc1N(C)C | inactive: -2.75% |
| Cc1ccc(C)c(N2CCN(CCCNC(=O)c3ccc4nc(CCc5ccccc5)oc4c3)CC2)c1 | inactive: -15.7% |
| Cc1cc(C)c2c(NC(=O)c3ccccc3)c(C(=O)Nc3ccc(F)cc3)sc2n1 | inactive: -7.09% |
| CCOc1ccc(N2CC(NC(=O)C3CCCC3)CC2=O)cc1 (centres undefined) | inactive: -8.07% |
| CCCNC(=O)C1CCC(Cn2c(=O)c3sccc3n(CC(=O)NCc3cccc(OC)c3OC)c2=O)CC1 (centres undefined) | inactive: -2.58% |
| Cc1ccc(C(=O)N/C(=C\c2ccc(Cl)cc2)C(=O)NC2CCCCC2)cc1 | inactive: -18.8% |
| COc1ccc(OC)c(NS(=O)(=O)c2ccc(N3CCCCS3(=O)=O)cc2)c1 | inactive: 26.3% |
| COc1cccc(N2CC(NC(=O)c3cc(Cl)ccc3OC)CC2=O)c1 (centres undefined) | inactive: -14.1% |
| N#Cc1c(C(F)(F)F)cc(-c2cccs2)nc1SCC(=O)Nc1cccc(Cl)c1 | inactive: -8.98% |
| CC(=O)c1cccc(NC(=O)CN(c2cc(C)cc(C)c2)S(=O)(=O)c2c(C)noc2C)c1 | inactive: -1.14% |
| COc1ccc(C(=O)c2sc(Nc3ccccc3)nc2N)cc1 | inactive: 15.4% |
| COc1ccc(NC(=O)c2ccco2)cc1NC(=O)c1cc(OC)c(OC)c(OC)c1 | inactive: 0.551% |
| COc1ccc(-c2onc(C)c2C)cc1S(=O)(=O)N(C)Cc1ccccc1 | inactive: -22.9% |
| Cc1cc(-n2ccnc(NCCc3ccc(S(N)(=O)=O)cc3)c2=O)ccc1Br | active: 120% |
| Cc1ccc(-n2c(COCC(=O)O)nc3cccnc32)cc1 | inactive: 7.73% |
| Cc1oc(-c2ccc(Cl)cc2)nc1CN1CCCC(C(=O)NCc2ccccc2)C1 (centres undefined) | active: 106% |
| Cc1ccc(/C=C(\C#N)C(=O)Nc2cccc(Br)c2)o1 | inactive: -4.91% |
| CCN1CCN(C(c2ccccc2Cl)c2c(O)cc(C)n(CCOC)c2=O)CC1 (centres undefined) | inactive: -5.63% |
| Cc1ccc(Cl)cc1N1CCN(C(=O)c2cc3c(=O)oc4ccccc4c3s2)CC1 | inactive: 0.505% |
| CCCCn1c(=O)nc2n(-c3ccc(Br)cc3)c3ccccc3cc-2c1=O | inactive: -13.4% |
| Nc1nn(-c2ccccc2)nc1C(=O)OCc1ccccc1 | inactive: 28.3% |
